From the supplement of paper PMC3334620
Whole data set: some 33,000 sequences, median “E-score (-0.5 to 0.5)” near -0.016, cut for the highest 2% near 0.31. Some of the results follow.

Target: Cst6 (UniProt P40535)
Experiment: PBM E-score (8-mer binding enrichment) (E-score (-0.5 to 0.5)); higher = stronger / more preferred TF binding; most listed sequences are background and not binding sites
Conditions: protein concentration: 200 nM; construct: GST-DNA-binding domain
Method in brief: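 Bound GST-tagged yeast transcription factors, applied at about 100-200 nM to double-stranded universal all-10-mer Agilent arrays, were detected with fluorescent anti-GST. Scans were normalised with masliner. A modified Wilcoxon-Mann-Whitney statistic, the E-score, was assigned to each ungapped eight-base word pooled with its reverse complement by the Universal PBM Analysis Suite.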

Sequence | PBM E-score
TAACCCAA | 0.174
TCATGGCA | 0.0614
CCCAATTC | 0.178
AGTAAGGA | -0.0515
GTAAAGAA | 0.214
CGAATGAC | 0.348
CGTAGCTC | 0.156
AAGAAGGC | -0.0423
CATTTAAG | 0.115
GGGAATTA | 0.11
GACGCCTC | 0.242
CACTCTAA | 0.00605
ACCGTTAC | -0.0121
GCAGTTAC | 0.0988
CATTATAG | 0.108
GTTACAGA | -0.0693
ATCTCTCG | -0.0585
CCCACGCC | -0.134
ATACGAAT | 0.0442
TCGATTCA | 0.0946
CCTCATCA | 0.161
ACAGAAAA | 0.229
AGATCATA | 0.236
CCGCAAGA | 0.0205
AATATAGA | 0.265

Sequence | PBM E-score
AAACTCCT | -0.234
GCATAGCA | 0.00461
AGGTGCAC | 0.103
AAGTTTAT | 0.187
GACCTTGC | -0.25
GGGGTCTA | -0.148
GTATCCCA | -0.23
CACTACTA | -0.125
AAAGGCAA | 0.229
ATTCGCAA | 0.0498
CACCCATG | 0.0657
CACAAGGA | -0.0992
ACTGGGGG | -0.426
AATTGCGG | -0.0187
GTTCGAGA | 0.0898
ATAAAGCC | -0.0256
AACTTCCT | 0.0315
CAGTAGAA | 0.0612
CGGGTGAC | 0.279
GCGACGCC | 0.119
AGAATATG | 0.252
GCCGTCAC | 0.334
CTATTCTA | 0.0634
CGTTTACC | 0.09
GATCCAAC | -0.156

Sequence | PBM E-score
CTGAGCAG | -0.0256
CTTACAAC | 0.136
AACGCCGC | 0.361
CCCTATAG | -0.195
GTAGTAAC | -0.1
AGGGACTA | -0.127
ATGGTGAC | 0.267
CAGAACTC | -0.0115
AATGATGG | 0.186
AATTCCCG | 0.0254
CAAGAATG | 0.123
GATAACAC | 0.0167
AGGTATCC | -0.0124
ACATACAC | 0.115
GCGTGCGA | -0.124
GGAGGAAA | -0.205
GTGCTGCA | -0.0597
CCCGGAGA | -0.0792
CGTGAAAA | 0.0945
GCTGACGA | 0.27
ATCAGGGC | -0.145
CTTCATCA | 0.106
CGATAGGC | 0.0216
GGCGACCA | -0.208
GGCTGTTA | 0.221

Sequence | PBM E-score
GTAGAACA | -0.215
AACTAATT | 0.209
CGTCGTTA | 0.0174
GCTTTCTA | 0.228
CACACAAG | 0.0242
CGGGACAC | -0.245
CAATGTTA | 0.0121
AAAACTGG | -0.0155
ACCTCGCC | -0.31
ACAGCACT | -0.0241
TATACATA | 0.295
CGAAGCAC | -0.0554
TCAGTTAA | 0.175
ACTGCATG | 0.0495
CCATCTGA | 0.0151
CAAGCAAA | -0.0475
TTCAAAAA | 0.171
TAAGCTTA | 0.185
CACACATC | -0.0773
GTCGGACA | -0.0848
TGGAGACA | -0.126
GCTTTAGA | -0.187
AGGATATA | 0.183
CCAGTGTA | -0.0483
ACAGCATG | 0.0103

Sequence | PBM E-score
AATAGCCT | 0.0007
CGGTTCTC | -0.159
CCGCTACG | -0.125
GAGGCACC | -0.0901
ACCTGTTG | 0.0132
CAAGGGGC | -0.101
AAGACGCG | -0.111
ACATCCGA | -0.125
TAATGACA | 0.347
ACACAATG | 0.183
CACTTATC | 0.174
CTGGGCAA | -0.048
ACTGGTAG | -0.0646
CAATTTAA | 0.199
ACGACTTC | 0.146
GGCGTACA | -0.0885
ATATTCAC | 0.106
CCACGTCC | -0.214
ACTTTTTC | 0.0891
CAGCCTCA | -0.106
AAAATAGC | -0.144
AGTAACTG | 0.00693
ACGGACAA | 0.0518
AGCAAACT | 0.0792
CGTGTTGC | 0.00207

Sequence | PBM E-score
CGATCGCG | 0.0609
GCTAGCAC | -0.116
TACCCATA | -0.0917
GGGTGTGA | -0.14
CCTCCGCA | -0.322
CATCCATA | -0.0759
CACAGGAA | -0.0714
ACAATCGG | 0.0962
GCATTGAC | 0.235
GGTGTTAC | -0.0874
AACACGAC | -0.134
AATCTCAA | 0.0209
CCACCTCA | -0.114
ACTTAGCA | -0.0634
GAGCTTCC | -0.124
CACCGCAA | 0.131
GCTCCTCC | -0.0758
AGACAAAA | 0.0317
ATGCTGGA | -0.0114
GCACTCGC | 0.0139
GCAGCGGA | -0.147
AAGTGACA | 0.357
AAGAAGAC | 0.012
CAGAATTC | 0.0696
AACCCACA | 0.0177

Sequence | PBM E-score
CCCGATCA | -0.255
CACAGTGG | -0.124
GGACCGAC | -0.125
AACATGGA | -0.0776
GGGATAGA | -0.134
GATGTGCC | -0.0597
GACCTGGC | -0.37
AGTAACGG | 0.016
GGGATCAC | -0.255
CGGCCCTC | -0.343
CCGATAGC | -0.29
AGGAGTAT | -0.0764
AGATAGCC | -0.286
CGCAGACC | -0.143
ATCTTCTG | 0.0518
CCCGACGC | -0.272
CAAAGTGC | 0.0144
GATCCTAC | -0.0235
ACTCCCCT | -0.329
CGCCACAA | 0.0627
CGTGATTC | 0.0631
ACGGGGGC | -0.3
TCGCCACA | 0.054
CATAGTAA | 0.313
CCTTTGAA | -0.0211

Sequence | PBM E-score
GGGGCCGA | -0.319
CTGTGGCA | -0.0921
TAGATCCA | -0.0888
AAGGTACT | -0.0715
ACTATCAC | 0.0216
AAGTACCC | -0.275
CATATATC | 0.121
ATCTGGCG | -0.0694
ACTCGTAA | 0.204
CCTGTTAG | 0.0225
GAGGCGGA | -0.284
CCAACAGC | -0.206
TGGTGACA | 0.378
CCAGACAG | -0.194
ATCGCGAT | 0.0818
ATCTCTGG | -0.167
CGCTGGTC | -0.237
AGGTGTAA | 0.108
CGGATTAG | -0.0592
GCGGCTGA | -0.0549
TCCGCAAA | -0.104
AACGTCCA | 0.0436
AAGATCTA | -0.0728
CCCTATAC | -0.113
CCCGGTGC | -0.264

Sequence | PBM E-score
ATTGGCGG | -0.00796
ACCCCAAG | -0.198
ATCGGACA | -0.131
CGGAAGCA | 0.151
GACCTTAC | -0.038
CGTGAATA | 0.267
AACTCACG | 0.197
TAGTGAGA | 0.101
TAGTTCAA | 0.0411
CCTATACG | -0.156
AGTGGTCG | -0.259
GGAGTCCC | -0.27
ATCTAACA | 0.0512
ATGGAGCG | -0.0703
CGGCGGTA | 0.128
GGGAAGGA | -0.171
GTTATAGA | 0.169
AAAAAATG | 0.266
CCAACGGC | -0.171
CTCTTCGA | -0.125
CCGCGAGG | 0.101
AGTCTCCC | -0.308
AGCGGACG | -0.102
CGCTGAAA | -0.0839
AGCTATAT | 0.161

Sequence | PBM E-score
TCAATTCA | 0.101
GCCTCCTA | -0.292
GGGCGAGA | -0.212
CCCTTCCC | -0.186
TAGCCTAA | -0.143
GTAGGGAC | 0.0082
ACTGGTGC | -0.064
GAGGCGGC | 0.2
CATATGAG | 0.0643
GGCAGGAA | -0.21
GTACGGTA | 0.0472
ACCAAGAC | -0.00643
ATCCGAAA | 0.0268
GAGTAAAA | 0.14
ACTAAATG | 0.0893
CAGGAAGC | 0.0578
GCGTGCAA | -0.209
AGTGCCAC | -0.0133
AAAACCGG | -0.011
AAGCTGGG | -0.266
AGATGTCC | -0.116
CTAAGACC | -0.119
CTCCATAA | 0.0411
AAGTGCCG | 0.125
GCTGGACA | -0.268

Sequence | PBM E-score
AAAAAACC | 0.0474
TGGGACCA | -0.146
AGAGCCAA | -0.0725
GTGCGATA | 0.0965
ACTATGTA | 0.148
ATGACTTG | -0.025
ACTCCAAT | -0.192
GCGTGAAA | 0.119
TCCTCCAA | -0.173
CTGAACTC | -0.256
GAGTGTGC | -0.102
ATGACTGC | 0.0273
AATACCCG | -0.0669
CTGGCAAA | -0.00524
ATCTTCGA | 0.0607
GCCCACGA | -0.336
ATGGCCTC | -0.128
AACCGAGC | 0.0238
AGCGAGTC | -0.244
AGTGCAAG | 0.0144
GAGCGCCC | -0.214
CACAATTC | 0.231
TACATAAA | 0.255
GAGAATGC | -0.00135
CCCCAAGC | -0.113

Sequence | PBM E-score
CGGCCGAG | -0.0503
ACAACGCC | 0.153
TCAATAGA | 0.222
CCTAGGGA | -0.0498
ACTCGGGA | -0.202
CGATCCGC | -0.101
AGTATTAC | 0.184
AACGTGGC | -0.0483
AAGCCCAA | -0.0495
CACAGAGA | 0.0716
CAATCTAG | 0.101
CAACCGGA | -0.139
CGGTAAAA | 0.0944
GACCTGCC | -0.265
CACTAACG | 0.0239
CCTTCCTC | -0.282
GCGTGACC | 0.0522
GAATATTC | 0.146
CACATGTG | 0.00714
CATCAACA | 0.236
AGACTGGA | -0.213
AATGTCCG | -0.039
TGAGCTCA | 0.374
CCTGGCTA | -0.109
CACAAGGC | 0.0636

Sequence | PBM E-score
CAGGAGTC | -0.0678
CCCTCAGG | -0.34
ACTGAAAT | 0.148
ATGATGTC | 0.478
AGTTACTG | -0.0692
AGAAATGG | 0.142
ATGAGTTG | 0.0721
CGTACGCC | 0.111
GGGAGCTA | -0.326
ATAAGGCA | 0.24
CTCGTGGA | -0.178
GAGCGTGA | -0.053
GAATGTCC | -0.0902
AAGGATCA | 0.0182
ATGAAGAC | 0.0948
AACTTTAA | 0.146
TAGCTGGA | -0.26
GAAAGCCA | -0.086
CTGTCACA | 0.0581
AAAAATTA | 0.333
ATGCGTGC | 0.00984
ACGATACC | -0.124
CGTGTCTC | 0.0239
AAGCAGAT | -0.0156
CGTACACA | -0.0476

Sequence | PBM E-score
TGCGATAA | 0.104
ATGTCACC | 0.465
TGCAAACA | -0.0811
ACTAGGCG | 0.23
CGAATCGA | 0.169
ATCCCGCG | 0.128
CGTTGCTC | -0.00709
GTTGTAGA | 0.00219
CGAAAAGA | 0.313
ATGTAGAA | 0.119
AAATCGCC | 0.049
CAATCAAG | -0.0503
CACAGTTA | 0.186
CATAAATC | 0.148
GATTTGGA | -0.0479
GAGTAACA | 0.028
ATTATGCA | 0.144
AAAGCATG | -0.039
CCGGGAAA | -0.148
